A number of entries come with more than one value. Only these are listed. An entry can have further records. Results that share an entry repeat one measurement across runs, samples, wells, individuals or studies.
Tested on: 276233-004-R-J1-PDC complex spheroid viability
Assay: Anticancer human tumor 276233-004-R-J1-PDC patient-derived colon adenocarcinoma cell line growth inhibition [GQUAD]
Conditions: stronger effect = lower value
Text: DNA G-quadruplex Stabilizer Agents in Combinations in Complex Spheroids
A high-throughput screen of multi-cell type tumor spheroids was designed to identify active combinations of DNA G-quadruplex stabilizer agents and targeted small molecules. Complex spheroids include a stromal component modeled by human endothelial cells (HUVEC) and fibroblasts modeled by human mesenchymal stem cells (MSCs). The concentration ranges selected for each drug and investigational agent were based upon clinically achievable concentrations if the clinical Cmax of the agent was known.
Compounds. The drugs and investigational agents: pidnarulex (CX-5461; NSC782164), APTO-253 (NSC789042), BRACO-19 (NSC847499), peposertib (NSC802822), ceralasertib (NSC780249), elimusertib (NSC800525), camonsertib (NSC841442), AZD-1390 (NSC803789), olaparib (NSC753686), talazoparib (NSC767125), ART-558 (NSC835418), sotorasib (NSC818433), MRTX-1133 (NSC836407), SN-38 (NSC673596), topotecan (NSC609699), etoposide (NSC141540), doxorubicin (NSC123127), gemcitabine (NSC613327), 5-fluorouracil (NSC19893), paclitaxel (NSC125973), vemurafenib (NSC761431), panobinostat (NSC761190), R-306465 (JNJ-16241199; NSC773264), adavosertib (NSC754352), TP-3654 (NSC805149), carboplatin (NSC241240), KSQ-4279 (NSC840948), and staurosporine (NSC755774) were obtained from the National Cancer Institute (NCI) Developmental Therapeutics Program Chemical Repository (34). The FDA-approved anticancer drug set is available from the NCI Developmental Therapeutics Program. […] The stock solutions were prepared in dimethyl sulfoxide (DMSO, Sigma-Aldrich, St. Louis, MO, cat. D2650) at 800-fold the tested concentration and stored at -70 degrees C prior to their use. All drugs and investigational agents were tested over a range starting from a high concentration at or near the clinical Cmax and decreasing in half-log increments. If the clinical Cmax for an agent had not been determined, the highest concentration tested was 10 microM.
2.3 Cell Culture. All cells were maintained in an incubator at 37 degrees C and 5% CO2 with 95% humidity. The PDC lines were cultured according to standard operating procedures established by the NCI PDMR. All PDCs were thawed and cultured in Matrigel-coated flasks prepared with a working solution of 1X Ham's F-12 nutrient mix, without supplementation (Invitrogen, cat. 11765054), 100 U/mL penicillin-streptomycin (Invitrogen, cat. 15140122), and 2.5% Matrigel (Corning Inc., cat. 354248) for the first three passages. The 857933-349-R-J2-PDC line was cultured in 6C/Colon 1B media, which includes advanced DMEM/F-12 (Thermo Fisher Scientific, cat. 12634028), 10 mM HEPES (Thermo Fisher Scientific, cat. 15630080), 1X GlutaMAX supplement (Thermo Fisher Scientific, cat. 35050061), 0.1 mg/mL primocin (InvivoGen, cat. ant-pm-2), 10% defined fetal bovine serum, heat inactivated (HyClone Laboratories Inc., cat. SH30070.03HI), 50% L-WRN conditioned media (ATCC, cat. CRL-3276), 1.25 mM N-Acetyl-L-cysteine (Sigma-Aldrich, cat. A9165), 10 mM nicotinamide (Sigma-Aldrich, cat. N0636), 1X B-27 supplement (Thermo Fisher Scientific, cat. 17504044), 1X N-2 supplement (Thermo Fisher Scientific, cat. 17502048), 10 microM Y-27632 dihydrochloride (Tocris Bioscience, cat. 1254), and 50 ng/mL human EGF recombinant protein (Thermo Fisher Scientific, cat. PHG0311). The 485176-168-R4-J1-PDC line was cultured in Panc media, which includes all 6C/Colon 1B media components plus 100 ng/mL human FGF-10 (Thermo Fisher Scientific, cat. 100-26), 500 nM SB-431542 (Selleckchem, cat. S1067), and gastrin (Tocris, cat. 3006).
[…]
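Also: spheroids exposed to drugs for seven days; 100% = DMSO vehicle control viability.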

| Compound | viability, T/C (compound alone 0.0316 µM) | viability, T/C (compound alone 0.1 µM) | viability, T/C (compound alone 3.16 µM) | viability, T/C (compound alone 0.316 µM) |
| --- | --- | --- | --- | --- |
| CN(C)c1ccc(Nc2c3ccc(NC(=O)CCN4CCCC4)cc3nc3cc(NC(=O)CCN4CCCC4)ccc23)cc1 | 106, 84, 99.3, 88.2, 91.3, 82.6, 99.4, 74.4, 92.3, 94.2, 87, 98.2% | 82, 70.9, 90.1, 85.9, 86.2, 95.9, 67.7, 64.4, 77.7, 69.5, 75.4, 71.4% | – | – |
| Cc1[nH]c2ccc(F)cc2c1-c1nc2c3cccnc3c3ncccc3c2[nH]1 | 81, 84.1, 101, 90.3, 104, 95.4, 91.8, 78.8, 80.3, 83.8, 72.4, 90% | 98.7, 96.3, 110, 95.4, 93.8, 98.2, 99.1, 85.7, 84.6, 72, 69.4, 70.4% | 40.9, 37.1, 42.8, 41.1, 39.1, 49.2, 39.5, 43.5, 19.7, 22.8, 15.6, 17.8% | – |
| Cc1cnc(CNC(=O)c2c(=O)c3ccc(N4CCCN(C)CC4)nc3n3c2sc2ccccc23)cn1 | 94.6, 88.4, 96.8, 98.5, 107, 85.9, 106, 82.8, 79.8, 98.7, 81.3, 84.9% | 92.7, 105, 89.1, 102, 76.3, 91.5, 86.9, 83, 90.7, 100, 101, 85.9% | – | 84.4, 85.3, 86.9, 96.6, 78.9, 79.1, 104, 88.9, 93.3, 76.8, 88.2, 92.5% |

Source: PubChem BioAssay AID2060496 (Molecular Pharmacology Branch, DTP, NCI, 2025)
